T1: NRDE2 (nuclear RNAi-defective 2), endogenous, untagged (human (endogenous in HEK293T)) (UniProt Q9H7Z3)
T1 sequence: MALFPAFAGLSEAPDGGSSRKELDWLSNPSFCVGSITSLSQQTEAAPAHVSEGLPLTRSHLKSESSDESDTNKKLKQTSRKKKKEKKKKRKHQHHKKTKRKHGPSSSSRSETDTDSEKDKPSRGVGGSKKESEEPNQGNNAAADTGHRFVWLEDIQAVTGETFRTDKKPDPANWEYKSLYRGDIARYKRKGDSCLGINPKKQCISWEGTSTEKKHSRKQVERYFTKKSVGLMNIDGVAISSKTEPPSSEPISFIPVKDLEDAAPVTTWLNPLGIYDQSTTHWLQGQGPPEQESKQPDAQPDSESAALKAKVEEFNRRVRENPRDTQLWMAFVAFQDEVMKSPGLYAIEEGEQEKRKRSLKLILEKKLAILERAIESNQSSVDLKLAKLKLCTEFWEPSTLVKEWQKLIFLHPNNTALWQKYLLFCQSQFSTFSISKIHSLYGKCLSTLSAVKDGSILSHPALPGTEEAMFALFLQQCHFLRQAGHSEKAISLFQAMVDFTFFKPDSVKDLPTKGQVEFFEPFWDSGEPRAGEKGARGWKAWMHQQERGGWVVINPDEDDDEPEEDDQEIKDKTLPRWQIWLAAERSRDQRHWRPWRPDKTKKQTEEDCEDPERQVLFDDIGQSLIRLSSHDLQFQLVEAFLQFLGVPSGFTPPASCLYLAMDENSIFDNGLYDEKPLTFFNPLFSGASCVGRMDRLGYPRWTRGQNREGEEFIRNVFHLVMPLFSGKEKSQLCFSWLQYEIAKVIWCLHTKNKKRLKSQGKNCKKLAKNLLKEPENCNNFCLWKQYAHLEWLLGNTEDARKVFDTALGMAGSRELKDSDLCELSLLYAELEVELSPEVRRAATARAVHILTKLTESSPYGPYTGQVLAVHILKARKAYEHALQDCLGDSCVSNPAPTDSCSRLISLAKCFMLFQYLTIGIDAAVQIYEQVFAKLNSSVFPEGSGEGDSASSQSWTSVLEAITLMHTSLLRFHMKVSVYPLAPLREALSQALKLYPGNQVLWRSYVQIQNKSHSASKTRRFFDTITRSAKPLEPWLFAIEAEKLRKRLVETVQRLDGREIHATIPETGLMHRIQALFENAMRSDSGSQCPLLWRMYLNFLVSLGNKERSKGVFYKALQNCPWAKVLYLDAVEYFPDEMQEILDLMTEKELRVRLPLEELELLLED

The chains behind the UniProt entries cited, without tags or fusion partners.
UniProt Q9NVM9: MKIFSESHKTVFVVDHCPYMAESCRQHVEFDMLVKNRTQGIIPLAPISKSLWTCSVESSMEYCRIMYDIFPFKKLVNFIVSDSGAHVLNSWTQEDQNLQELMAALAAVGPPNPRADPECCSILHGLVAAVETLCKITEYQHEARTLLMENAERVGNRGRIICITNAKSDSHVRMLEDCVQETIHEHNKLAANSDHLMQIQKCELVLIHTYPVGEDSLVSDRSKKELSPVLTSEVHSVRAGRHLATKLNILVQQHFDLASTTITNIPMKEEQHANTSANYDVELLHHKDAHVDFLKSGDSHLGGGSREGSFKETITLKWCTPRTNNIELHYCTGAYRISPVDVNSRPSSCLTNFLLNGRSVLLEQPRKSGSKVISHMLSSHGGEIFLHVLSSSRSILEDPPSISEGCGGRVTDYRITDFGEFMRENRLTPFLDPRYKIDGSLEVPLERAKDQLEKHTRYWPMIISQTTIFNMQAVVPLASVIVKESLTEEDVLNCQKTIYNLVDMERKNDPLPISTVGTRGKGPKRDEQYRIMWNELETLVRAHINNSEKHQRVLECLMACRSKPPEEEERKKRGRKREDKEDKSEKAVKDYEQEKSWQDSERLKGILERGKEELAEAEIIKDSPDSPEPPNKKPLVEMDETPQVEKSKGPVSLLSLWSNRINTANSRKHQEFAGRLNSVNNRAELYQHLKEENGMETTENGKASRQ
UniProt P11387: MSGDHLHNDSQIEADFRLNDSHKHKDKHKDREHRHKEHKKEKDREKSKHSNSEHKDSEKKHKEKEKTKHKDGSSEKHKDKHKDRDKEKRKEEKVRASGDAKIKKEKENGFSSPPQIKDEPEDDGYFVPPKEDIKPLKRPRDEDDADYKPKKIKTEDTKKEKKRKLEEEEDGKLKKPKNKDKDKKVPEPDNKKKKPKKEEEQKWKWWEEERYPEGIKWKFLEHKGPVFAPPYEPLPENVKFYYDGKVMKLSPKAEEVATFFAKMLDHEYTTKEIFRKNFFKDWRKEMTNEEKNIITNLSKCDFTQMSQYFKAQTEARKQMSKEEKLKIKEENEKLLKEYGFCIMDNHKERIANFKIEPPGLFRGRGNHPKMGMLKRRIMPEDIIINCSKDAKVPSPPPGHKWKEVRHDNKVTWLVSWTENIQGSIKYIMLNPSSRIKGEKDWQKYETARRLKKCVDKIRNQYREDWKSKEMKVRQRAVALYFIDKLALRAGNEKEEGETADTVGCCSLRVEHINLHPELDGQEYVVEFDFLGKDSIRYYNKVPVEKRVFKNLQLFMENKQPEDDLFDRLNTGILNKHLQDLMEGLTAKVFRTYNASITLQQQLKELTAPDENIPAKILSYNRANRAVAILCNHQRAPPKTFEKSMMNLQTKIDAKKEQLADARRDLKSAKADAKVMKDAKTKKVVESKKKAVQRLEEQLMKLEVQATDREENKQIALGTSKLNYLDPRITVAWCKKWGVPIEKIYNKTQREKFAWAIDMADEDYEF
UniProt O94992: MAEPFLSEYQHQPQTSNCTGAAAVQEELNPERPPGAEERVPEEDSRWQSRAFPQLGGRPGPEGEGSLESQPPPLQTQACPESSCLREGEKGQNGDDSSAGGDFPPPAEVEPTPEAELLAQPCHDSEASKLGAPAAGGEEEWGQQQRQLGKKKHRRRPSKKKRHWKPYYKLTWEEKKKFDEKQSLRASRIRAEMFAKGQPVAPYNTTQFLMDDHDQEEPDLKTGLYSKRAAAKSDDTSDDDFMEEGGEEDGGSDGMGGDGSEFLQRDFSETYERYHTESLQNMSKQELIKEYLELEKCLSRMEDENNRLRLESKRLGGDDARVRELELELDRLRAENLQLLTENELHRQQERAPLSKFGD
UniProt Q12905: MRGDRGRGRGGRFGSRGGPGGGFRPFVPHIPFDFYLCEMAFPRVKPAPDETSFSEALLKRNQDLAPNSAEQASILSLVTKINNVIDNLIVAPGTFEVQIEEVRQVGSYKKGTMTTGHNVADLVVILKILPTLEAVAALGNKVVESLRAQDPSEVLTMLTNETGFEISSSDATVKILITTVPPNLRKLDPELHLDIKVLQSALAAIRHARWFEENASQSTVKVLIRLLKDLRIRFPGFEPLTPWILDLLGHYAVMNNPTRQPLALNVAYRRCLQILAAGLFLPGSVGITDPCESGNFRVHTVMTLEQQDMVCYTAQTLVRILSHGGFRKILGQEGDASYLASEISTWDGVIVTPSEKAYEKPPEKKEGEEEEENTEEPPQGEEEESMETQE
UniProt O43143: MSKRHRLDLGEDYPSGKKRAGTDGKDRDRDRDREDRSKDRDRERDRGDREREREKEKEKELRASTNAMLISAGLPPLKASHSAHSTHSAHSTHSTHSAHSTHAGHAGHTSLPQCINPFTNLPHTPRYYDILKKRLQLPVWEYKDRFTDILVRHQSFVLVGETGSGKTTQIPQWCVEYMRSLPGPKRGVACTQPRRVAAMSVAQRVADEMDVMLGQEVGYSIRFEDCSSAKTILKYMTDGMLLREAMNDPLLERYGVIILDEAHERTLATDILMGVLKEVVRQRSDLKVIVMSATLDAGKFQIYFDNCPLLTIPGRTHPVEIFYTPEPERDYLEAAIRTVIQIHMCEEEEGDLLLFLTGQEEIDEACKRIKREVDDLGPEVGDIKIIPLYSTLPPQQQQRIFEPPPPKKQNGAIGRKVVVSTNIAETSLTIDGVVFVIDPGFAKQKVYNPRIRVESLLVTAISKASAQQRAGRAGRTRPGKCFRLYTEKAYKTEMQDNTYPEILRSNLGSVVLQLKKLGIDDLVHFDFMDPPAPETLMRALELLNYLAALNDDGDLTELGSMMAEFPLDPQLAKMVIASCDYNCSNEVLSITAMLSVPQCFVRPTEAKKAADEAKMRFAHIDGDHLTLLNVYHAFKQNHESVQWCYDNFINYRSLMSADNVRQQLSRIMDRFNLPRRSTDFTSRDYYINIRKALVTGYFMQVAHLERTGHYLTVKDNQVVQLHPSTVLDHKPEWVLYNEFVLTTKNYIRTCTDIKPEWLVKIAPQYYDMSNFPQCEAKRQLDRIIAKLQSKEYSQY
UniProt Q92841: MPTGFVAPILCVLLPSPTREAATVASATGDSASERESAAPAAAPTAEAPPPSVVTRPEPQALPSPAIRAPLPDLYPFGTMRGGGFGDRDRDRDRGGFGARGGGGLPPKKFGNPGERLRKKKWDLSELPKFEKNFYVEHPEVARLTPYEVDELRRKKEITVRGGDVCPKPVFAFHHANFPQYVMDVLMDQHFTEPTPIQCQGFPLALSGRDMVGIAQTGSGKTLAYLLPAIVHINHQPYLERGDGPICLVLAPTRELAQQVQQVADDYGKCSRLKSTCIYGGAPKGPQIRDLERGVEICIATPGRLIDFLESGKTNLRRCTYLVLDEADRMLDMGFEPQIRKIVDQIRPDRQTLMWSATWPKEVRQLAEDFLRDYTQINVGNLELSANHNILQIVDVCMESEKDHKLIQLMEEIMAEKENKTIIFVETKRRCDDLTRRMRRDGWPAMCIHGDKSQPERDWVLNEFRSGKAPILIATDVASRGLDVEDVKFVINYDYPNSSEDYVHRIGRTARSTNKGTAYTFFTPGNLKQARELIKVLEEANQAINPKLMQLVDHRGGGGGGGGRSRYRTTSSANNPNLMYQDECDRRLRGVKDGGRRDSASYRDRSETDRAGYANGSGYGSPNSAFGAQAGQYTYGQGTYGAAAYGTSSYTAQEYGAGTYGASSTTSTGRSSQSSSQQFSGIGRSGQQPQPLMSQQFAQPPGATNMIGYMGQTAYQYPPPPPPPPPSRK
UniProt P50750: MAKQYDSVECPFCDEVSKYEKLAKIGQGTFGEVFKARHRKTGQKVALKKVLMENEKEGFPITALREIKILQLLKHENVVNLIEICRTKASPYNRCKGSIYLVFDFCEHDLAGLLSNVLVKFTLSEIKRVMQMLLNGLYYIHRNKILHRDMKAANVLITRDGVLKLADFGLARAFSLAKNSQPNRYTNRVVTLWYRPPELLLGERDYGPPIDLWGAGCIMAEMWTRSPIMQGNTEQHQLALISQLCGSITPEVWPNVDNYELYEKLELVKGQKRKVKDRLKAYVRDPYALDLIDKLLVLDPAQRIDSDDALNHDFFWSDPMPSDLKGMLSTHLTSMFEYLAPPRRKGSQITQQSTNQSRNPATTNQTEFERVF
UniProt Q68E01: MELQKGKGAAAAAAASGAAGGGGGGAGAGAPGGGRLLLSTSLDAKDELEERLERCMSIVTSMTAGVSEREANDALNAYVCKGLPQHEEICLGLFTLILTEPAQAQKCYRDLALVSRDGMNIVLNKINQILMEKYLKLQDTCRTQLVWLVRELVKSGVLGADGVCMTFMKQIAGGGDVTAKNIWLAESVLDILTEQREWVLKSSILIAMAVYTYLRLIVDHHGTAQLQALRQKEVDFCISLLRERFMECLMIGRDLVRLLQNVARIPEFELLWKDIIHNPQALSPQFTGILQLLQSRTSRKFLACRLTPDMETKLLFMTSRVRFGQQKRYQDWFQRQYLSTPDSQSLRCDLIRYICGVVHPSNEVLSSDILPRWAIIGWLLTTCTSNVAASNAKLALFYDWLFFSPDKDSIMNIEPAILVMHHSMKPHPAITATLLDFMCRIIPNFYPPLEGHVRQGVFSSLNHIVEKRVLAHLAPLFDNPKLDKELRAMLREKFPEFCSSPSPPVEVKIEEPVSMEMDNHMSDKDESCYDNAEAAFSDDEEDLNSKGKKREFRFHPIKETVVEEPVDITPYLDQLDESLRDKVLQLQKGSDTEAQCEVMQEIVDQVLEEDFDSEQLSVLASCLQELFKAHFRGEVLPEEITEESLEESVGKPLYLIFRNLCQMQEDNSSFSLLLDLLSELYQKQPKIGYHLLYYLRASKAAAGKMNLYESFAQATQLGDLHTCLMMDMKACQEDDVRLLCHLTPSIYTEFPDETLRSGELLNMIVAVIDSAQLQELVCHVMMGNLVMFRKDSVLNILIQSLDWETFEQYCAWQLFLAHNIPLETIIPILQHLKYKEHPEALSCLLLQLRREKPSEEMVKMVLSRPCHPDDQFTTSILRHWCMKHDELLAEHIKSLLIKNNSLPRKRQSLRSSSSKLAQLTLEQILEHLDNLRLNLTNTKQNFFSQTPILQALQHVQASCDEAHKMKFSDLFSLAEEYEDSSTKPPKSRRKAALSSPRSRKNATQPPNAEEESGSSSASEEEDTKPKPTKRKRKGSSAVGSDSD

B1: ILF3 (protein, UniProt Q12906 1-894)
chain: MRPMRIFVNDDRHVMAKHSSVYPTQEELEAVQNMVSHTERALKAVSDWIDEQEKGSSEQAESDNMDVPPEDDSKEGAGEQKTEHMTRTLRGVMRVGLVAKGLLLKGDLDLELVLLCKEKPTTALLDKVADNLAIQLAAVTEDKYEILQSVDDAAIVIKNTKEPPLSLTIHLTSPVVREEMEKVLAGETLSVNDPPDVLDRQKCLAALASLRHAKWFQARANGLKSCVIVIRVLRDLCTRVPTWGPLRGWPLELLCEKSIGTANRPMGAGEALRRVLECLASGIVMPDGSGIYDPCEKEATDAIGHLDRQQREDITQSAQHALRLAAFGQLHKVLGMDPLPSKMPKKPKNENPVDYTVQIPPSTTYAITPMKRPMEEDGEEKSPSKKKKKIQKKEEKAEPPQAMNALMRLNQLKPGLQYKLVSQTGPVHAPIFTMSVEVDGNSFEASGPSKKTAKLHVAVKVLQDMGLPTGAEGRDSSKGEDSAEETEAKPAVVAPAPVVEAVSTPSAAFPSDATAEQGPILTKHGKNPVMELNEKRRGLKYELISETGGSHDKRFVMEVEVDGQKFQGAGSNKKVAKAYAALAALEKLFPDTPLALDANKKKRAPVPVRGGPKFAAKPHNPGFGMGGPMHNEVPPPPNLRGRGRGGSIRGRGRGRGFGGANHGGYMNAGAGYGSYGYGGNSATAGYSQFYSNGGHSGNASGGGGGGGGGSSGYGSYYQGDNYNSPVPPKHAGKKQPHGGQQKPSYGSGYQSHQGQQQSYNQSPYSNYGPPQGKQKGYNHGQGSYSYSNSYNSPGGGGGSDYNYESKFNYSGSGGRSGGNSYGSGGASYNPGSHGGYGGGSGGGSSYQGKQGGYSQSNYNSPGSGQNYSGPPSSYQSSQGGYGRNADHSMNYQYR
B2: ZCCHC8 (NEXT) (protein, UniProt Q6NZY4 1-707)
chain: MAAEVYFGDLELFEPFDHPEESIPKPVHTRFKDDDGDEEDENGVGDAELRERLRQCEETIEQLRAENQELKRKLNILTRPSGILVNDTKLDGPILQILFMNNAISKQYHQEIEEFVSNLVKRFEEQQKNDVEKTSFNLLPQPSSIVLEEDHKVEESCAIKNNKEAFSVVGSVLYFTNFCLDKLGQPLLNENPQLSEGWEIPKYHQVFSHIVSLEGQEIQVKAKRPKPHCFNCGSEEHQMKDCPMPRNAARISEKRKEYMDACGEANNQNFQQRYHAEEVEERFGRFKPGVISEELQDALGVTDKSLPPFIYRMRQLGYPPGWLKEAELENSGLALYDGKDGTDGETEVGEIQQNKSVTYDLSKLVNYPGFNISTPRGIPDEWRIFGSIPMQACQQKDVFANYLTSNFQAPGVKSGNKRSSSHSSPGSPKKQKNESNSAGSPADMELDSDMEVPHGSQSSESFQFQPPLPPDTPPLPRGTPPPVFTPPLPKGTPPLTPSDSPQTRTASGAVDEDALTLEELEEQQRRIWAALEQAESVNSDSDVPVDTPLTGNSVASSPCPNELDLPVPEGKTSEKQTLDEPEVPEIFTKKSEAGHASSPDSEVTSLCQKEKAELAPVNTEGALLDNGSVVPNCDISNGGSQKLFPADTSPSTATKIHSPIPDMSKFATGITPFEFENMAESTGMYLRIRSLLKNSPRNQQKNKKASE

These are yes or no findings as the source states them, for the method shown. Binding seen in cells or lysates may run through a third protein. Some binding calls cover weakened binding; strength is not graded here. Where a sequence is shown, tags or fusion partners need not be part of it.

The assay has as its target T1, NRDE2 (nuclear RNAi-defective 2), endogenous, untagged (human (endogenous in HEK293T)). The assay can be described thus: co-IP; nuclear extracts (250 ug) of parental HEK293T immunoprecipitated with NRDE2 antibody or IgG control (2 ug) overnight at 4 °C; 3 washes with 20 mM Tris pH 8, 3 mM KCl, 150 mM NaCl, 1 mM MgCl2, 0.2% Triton X-100; immunoblot. (In general: In western blotting, separated proteins are transferred to a membrane and probed.)
As to “INTS13, subunit of the Integrator complex (from UniProt Q9NVM9 1-706)”, the binding result is given as “binds”.

Regarding SNRNP200 (from UniProt O75643 1-2136), the binding entry is given as “binds”. In the case of “Topoisomerase I (TOP1) (from UniProt P11387 1-765) (enzyme)”, the binding result is “binds”. The same measure for “ZFC3H1 (PAXT) (from UniProt O60293 1-1989)”: “no binding”. With HEXIM1 (from UniProt O94992 1-359), the binding result is “no binding”. The same measure for ILF2 (from UniProt Q12905 1-390): “binds”. The value for DDX15 (from UniProt O43143 1-795) was “binds”; that for DDX17 (from UniProt Q92841 1-729) was “binds”. Regarding “CDK9, subunit of the positive transcription elongation factor b (P-TEFb) (from UniProt P50750 1-372) (enzyme)”, the binding entry is reported as “binds”. The same measure for “INTS3, subunit of the Integrator complex (from UniProt Q68E01 1-1043)”: “binds”; for B1: “binds”. Take B2: the binding entry was “no binding”.

Values taken from PMC12524662.
